Mutation enrichment score data for 19 molecules are collected here from the supplement of paper PMC11369174, “Proteome-scale characterisation of motif-based interactome rewiring by disease mutations” (Molecular Systems Biology, 2024).

Some of the results follow. The data scatter; read single values as rough.

In the first assay the target is T1, GGA1_VHS__Q9UJY5_1_157.
T1 chain: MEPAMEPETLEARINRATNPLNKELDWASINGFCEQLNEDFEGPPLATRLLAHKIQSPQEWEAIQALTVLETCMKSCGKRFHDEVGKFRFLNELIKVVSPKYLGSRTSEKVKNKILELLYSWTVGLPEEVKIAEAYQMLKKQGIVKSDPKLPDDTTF
The assay can be described thus: mutation enrichment score (mutant vs wild-type peptide binding to bait); baits are purified protein domains named by gene / domain / UniProt id / residues; peptides come from disordered regions of human proteins; higher = mutation enhances binding relative to wild type. The note with it: number of wild-type / mutant comparisons summed (bounds the score): 5; paper call: no_effect; wild-type window: ….
For the molecule YDTIYAHQDKRDDVLIGLKSAALRFGENTKPWLSGFSVAML [T267A T267A], the mutation enrichment score is -3.4.

As for TEDKTDISSGRARQQDEEMLKLPAPAEVAAKNQSLEGDTTK [E433K E433K], the mutation enrichment score came out at 0.

Take LHKVLNQLEELLSDMKADVTLLPATLSRIPPIAARLQMSER [R1881L R1881L]: the mutation enrichment score came out at 2.

In the case of SGRARQQDEEMLELPAPAEVTAKNQSLEGDTTKGTSEMSEK [A441T A441T], the mutation enrichment score amounted to 5.

As for TPVMMAAVKTYRWQCIECKCWNICGTSENDDQLLFCDDCDR [C330W C330W], the mutation enrichment score came to 5.

In the case of PEASDGSGSWEDAALLTEANPPAPAPASASAPVLETLGSSE [L363P L363P], the mutation enrichment score worked out at 1.

For the molecule ISSGRARQQDEEMLELPAPAKVAAKNQSLEGDTTKGTSEMS [E439K E439K], the mutation enrichment score was found to be 4.

The target of the next assay is T2, GEF_Sec7__Q9Y6D5_639_829.
T2 chain: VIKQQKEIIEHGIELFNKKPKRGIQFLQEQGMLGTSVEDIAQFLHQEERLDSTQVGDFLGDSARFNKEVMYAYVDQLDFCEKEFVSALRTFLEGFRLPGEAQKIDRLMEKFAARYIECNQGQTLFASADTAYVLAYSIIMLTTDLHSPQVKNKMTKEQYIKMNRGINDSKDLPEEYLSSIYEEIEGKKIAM
The assay is described as above. Particulars: number of wild-type / mutant comparisons summed (bounds the score): 6; paper call: no_effect; wild-type window: ….
As for VPGPGLVKDSPLLLQQISAMKLHISQLQHENSILKGAQMKA [R1101K R1101K], the mutation enrichment score turned out to be 6.

The next assay concerns the target GABARAPL2_ATG8__P60520_2_115. The description is as above. Particulars: number of wild-type / mutant comparisons summed (bounds the score): 6; paper call: no_effect; wild-type window: ….
Regarding EGLFEYDLLPFLSSTISPYYCQSLFRTVLDSGISEVRSDRD [R49C R49C], the mutation enrichment score is -3.

For the molecule IGVKKHLAPFLPNHPVISLKWNEDACPVGTVSAAPWGSSSI [R790W R790W], the mutation enrichment score was -2.

In the case of YEVQWKVVEEINGNNYVYIDLTQLPYDHKWEFPRNRLSFGK [P573L P573L], the mutation enrichment score worked out at 0.

For APVPIAAHASVAGHLSTSTTISSSGAQNSDSTKKTLVTLIA [V71I V71I], the mutation enrichment score is -4.

For KIASDCQLPRWHMNDFFHSFPIVFRVLCGEWIETMWDCMEV [L942P L942P], the mutation enrichment score came to 2.

In a further assay the target is T3, MSN_FERM_1_P26038_1_322.
T3 chain: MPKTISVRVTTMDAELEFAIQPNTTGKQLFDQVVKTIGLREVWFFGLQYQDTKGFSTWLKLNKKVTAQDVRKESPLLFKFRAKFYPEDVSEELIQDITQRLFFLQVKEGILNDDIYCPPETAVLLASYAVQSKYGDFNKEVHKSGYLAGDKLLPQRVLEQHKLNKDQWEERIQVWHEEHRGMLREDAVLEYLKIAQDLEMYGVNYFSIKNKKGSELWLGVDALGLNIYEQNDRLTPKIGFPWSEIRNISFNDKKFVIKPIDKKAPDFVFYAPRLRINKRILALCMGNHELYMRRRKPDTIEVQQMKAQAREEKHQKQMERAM
The assay is described as above. The note with it: number of wild-type / mutant comparisons summed (bounds the score): 6; paper call: enhanced; wild-type window: ….
As to EGLFEYDLLPFLSSTISPYYCQSLFRTVLDSGISEVRSDRD [R49C R49C], the mutation enrichment score is 6.

Another assay has as its target T4, RDX_FERM_1_P35241_5_295.
T4 chain: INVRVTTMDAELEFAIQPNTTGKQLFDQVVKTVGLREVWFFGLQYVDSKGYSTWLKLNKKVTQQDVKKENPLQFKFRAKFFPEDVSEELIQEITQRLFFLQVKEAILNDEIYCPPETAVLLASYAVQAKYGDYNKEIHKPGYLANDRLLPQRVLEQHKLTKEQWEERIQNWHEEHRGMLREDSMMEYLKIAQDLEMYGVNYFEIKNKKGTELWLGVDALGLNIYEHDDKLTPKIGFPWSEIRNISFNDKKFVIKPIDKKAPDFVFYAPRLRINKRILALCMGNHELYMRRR
Described as above. Particulars: number of wild-type / mutant comparisons summed (bounds the score): 6; paper call: no_effect; wild-type window: ….
In the case of EGLFEYDLLPFLSSTISPYYCQSLFRTVLDSGISEVRSDRD [R49C R49C], the mutation enrichment score was found to be 3.

A further assay has as its target T2, GEF_Sec7__Q9Y6D5_639_829. The description is as above. Particulars: number of wild-type / mutant comparisons summed (bounds the score): 6; paper call: enhanced; wild-type window: ….
Turning to LDVAKPDLTAALKEIRTQYEVMASSNMHEAEEWYRSKFADL [A244V A244V], the mutation enrichment score came to 6.

Take ARQQVHVELDVAKPDLTAALTEIRTQYEAMASSNMHEAEEW [K236T K236T]: the mutation enrichment score is 6.

A further assay has as its target T5, SPOP_MATH__O43791_19_176.
T5 chain: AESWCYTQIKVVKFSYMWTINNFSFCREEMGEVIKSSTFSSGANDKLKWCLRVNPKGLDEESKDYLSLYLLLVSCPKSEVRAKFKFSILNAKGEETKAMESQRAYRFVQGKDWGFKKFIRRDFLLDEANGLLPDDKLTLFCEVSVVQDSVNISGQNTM
Described as above. Particulars: number of wild-type / mutant comparisons summed (bounds the score): 18; paper call: no_effect; wild-type window: ….
As for APVPIAAHASVAGHLSTSTTISSSGAQNSDSTKKTLVTLIA [V71I V71I], the mutation enrichment score was -3.

For the next assay, the target named is USP7_MATH-TRAF__Q93009_53_206. The description is as above. The note with it: number of wild-type / mutant comparisons summed (bounds the score): 15; paper call: no_effect; wild-type window: ….
Chain of USP7_MATH-TRAF__Q93009_53_206 (chain, as listed by the source): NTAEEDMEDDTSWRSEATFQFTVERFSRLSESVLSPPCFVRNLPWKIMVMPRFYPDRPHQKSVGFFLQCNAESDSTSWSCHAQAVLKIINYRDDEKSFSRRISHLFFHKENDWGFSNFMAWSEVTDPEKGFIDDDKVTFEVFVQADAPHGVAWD
Consider APVPIAAHASVAGHLSTSTTISSSGAQNSDSTKKTLVTLIA [V71I V71I], for which the mutation enrichment score was -1.4.

For the next assay, the target named is T6, GGA3_VHS__Q9NZ52_1_166.
T6 chain: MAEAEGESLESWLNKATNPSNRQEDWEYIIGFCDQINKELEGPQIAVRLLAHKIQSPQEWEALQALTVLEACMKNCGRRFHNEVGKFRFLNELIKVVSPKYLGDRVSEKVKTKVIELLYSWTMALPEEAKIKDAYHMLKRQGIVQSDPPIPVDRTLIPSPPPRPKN
The assay is described as above. The note with it: number of wild-type / mutant comparisons summed (bounds the score): 6; paper call: enhanced; wild-type window: ….
SGRARQQDEEMLELPAPAEVTAKNQSLEGDTTKGTSEMSEK [A441T A441T]: the mutation enrichment score came to 6.

In the case of ISSGRARQQDEEMLELPAPAKVAAKNQSLEGDTTKGTSEMS [E439K E439K], the mutation enrichment score amounted to 6.

The same assay, now with this note: number of wild-type / mutant comparisons summed (bounds the score): 6; paper call: no_effect; wild-type window: ….
Turning to TPVMMAAVKTYRWQCIECKCWNICGTSENDDQLLFCDDCDR [C330W C330W], the mutation enrichment score was 5.

The target of another assay is T1, GGA1_VHS__Q9UJY5_1_157. The assay is described as above. The note with it: number of wild-type / mutant comparisons summed (bounds the score): 10; paper call: diminished; wild-type window: ….
Take KVAAYDKLEKTKTRLQQELDGLLVDLDHQRQSACNLEKKQK [D1424G D1424G]: the mutation enrichment score is -10.

Regarding KVAAYDKLEKTKTRLQQELDNLLVDLDHQRQSACNLEKKQK [D1424N D1424N], the mutation enrichment score is -10.

Consider KVAAYDKLEKTKTRLQQELDHLLVDLDHQRQSACNLEKKQK [D1424H D1424H], for which the mutation enrichment score is -10.

Another assay has as its target T6, GGA3_VHS__Q9NZ52_1_166. The assay is described as above. Particulars: number of wild-type / mutant comparisons summed (bounds the score): 12; paper call: diminished; wild-type window: ….
Take KVAAYDKLEKTKTRLQQELDGLLVDLDHQRQSACNLEKKQK [D1424G D1424G]: the mutation enrichment score was -8.

Regarding KVAAYDKLEKTKTRLQQELDNLLVDLDHQRQSACNLEKKQK [D1424N D1424N], the mutation enrichment score was -8.

With KVAAYDKLEKTKTRLQQELDHLLVDLDHQRQSACNLEKKQK [D1424H D1424H], the mutation enrichment score is -8.

The target of a further assay is GABARAPL2_ATG8__P60520_2_115. The description is as above. Particulars: number of wild-type / mutant comparisons summed (bounds the score): 6; paper call: enhanced; wild-type window: ….
Chain of GABARAPL2_ATG8__P60520_2_115 (chain, as listed by the source): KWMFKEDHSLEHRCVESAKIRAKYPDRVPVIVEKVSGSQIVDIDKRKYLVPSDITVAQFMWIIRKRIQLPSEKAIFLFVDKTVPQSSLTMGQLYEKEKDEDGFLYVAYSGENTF
Take MAKAAASSSLEDLDLSGEEVWRLTSAFQ [S8W S8W]: the mutation enrichment score turned out to be 6.

Another assay deals with WDR5_WD_1234567_P61964_21_334. Described as above. Particulars: number of wild-type / mutant comparisons summed (bounds the score): 6; paper call: no_effect; wild-type window: ….
ARQQVHVELDVAKPDLTAALTEIRTQYEAMASSNMHEAEEW [K236T K236T]: the mutation enrichment score was determined as 1.
